B1: TPR 5TU (parent)
chain: GGAUCUUCUCGAUCUAACAAAAAAGACAAAUCUGCCACAAAGCUUGAGAGCAUCUUCGGAUGCAGAGGCGGCAGCCUUCGGUGGCGCGAUAGCGCCAACGUUCUCAACUAUGACACGCAAAACGCGUGCUCCGUUGAAUGGAGUUUAUCAUG

Variants at the floor of the assay are shown more often than the library holds them.

The variants in the series derive from B1. As to the kind of experiment: polymerase ribozyme fitness, log enrichment relative to wild type (log ratio); higher = more active; in vitro selection for triplet polymerase activity. An outline of the steps:
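To select mutant libraries of each subunit of a heterodimeric triplet polymerase ribozyme, built by PCR and transcribed, each was annealed with a biotinylated primer, partner subunit and triplets, then incubated frozen at −7 °C. Extended constructs were gel-excised, captured on streptavidin beads and amplified by RT-PCR, in one round carried out in triplicate. Illumina sequencing of input and output libraries kept genotypes with ≥10 input reads and ≥1 read per output. Fitness is the base-2 logarithm of genotype enrichment relative to wild-type enrichment, from inverse-variance-weighted replicate averages.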
As to GGAUCUUCUCGAUCUAACAAAAUAGACUAAUCUGCCACAGAGCUUGAGAGCAUUUUUGGAUGCAGAGGCGGCAGCCAUCGGUGGCGCGAUAGAGCCAACGUUCUCAACUAUGACACGCAAAACGCGUGCUCCGUUGAAUGGAAUUUAUCAUG, the “polymerase ribozyme fitness (log ratio)” value was at most -4.2. Then GGAUCUUCUCGAUCUAACAAAAUAGACAAAUCUGCCACAAAGCUUGUGAGCAUCUUCGGAUGCAGAGGCGGCAGCCUUCGCUGGCGCGAUAGCGCCAAGGUUCUCAUCUAUGACACGCAAAACGCGUGCUCCGUUGAAUAGAGUUUAUCAUG, with at most -4.2; and GGAUCUUCUCGAUCUAACAAAAUAGACAGAUCUGCCACAAAGCUUGAGAGCAUCUUCGGAUGCAGAGGCGGCAGCCUUCGGUGGCGCGAUAGCGCCAACGUUCUCAACUAUGACACGCAAAACGCGUGCUCCGUUGAAUGGAGUUUAUCAUG, with at most -4.2. To GGAUCUUCUCGAUCUAACAAAAUAGACAUAUCUGCCACAAAGCUUGAGAGCAUCUUCGGAUGCAGAGGCGGCAGCCUUCGGUGGCGCGAUAGCGCCAACGUUCUCAACUAUGACACGCAAAACGCGUGCUCCGUUGAAUGGAGUUUAUCAUG belongs -3.88. Take GGAUCUUCUCGAUCUAACAAAAUAGACAAAUCUGCCUCAGAGCUUGAGAGCAUCAUAGGAUGCAGAGGCGGCAGCCUUCGGUAGCGCGAUAGCGCCAACGUUCUCAACUAUGACACGGAAAACGCGUGCUCCAUUGAAUGGAGUUUAUCAGG: the “polymerase ribozyme fitness (log ratio)” value was at most -4.2. To GGAUCUUCUCGAUCUAACAAAAUAGACAAAUCUGCCACAAAGCUUGAGAGCGUCUUCGGAUGCAGAGGCGGCAGCAUUCGGUGUCGCGAUAGCGCCAACGUUCUCAACUAUGACAUGCAAAGCGCGUGCUCCGUUGAAUGAAGUUUAUCAUG belongs at most -4.2; to GGAUCUUCUCGAUCUAACAAAAUAGACAUAUCUGCCAAAAAGCUUGAGAGCGUCUUCGGAUGCAGAGGCGGCAGCCGUCGGUGGCGCGAUAACGCCAACGUUCUCAUCUAUGACACGCAAAACGCGUGCUCCGUUGAAUGGACUUUAUCAUG, at most -4.2; to GGAUCUUCUCGAUCUAACAAAAUAGACAAAUCUGCCACAUAGCUUGAGAGCAUCUUCGGAUGCAGAGGCGGCAGCCUUCGGUGGCGCGAAAGCGCCAACGUUCUCAACUAUGACACGAAAAACGCGUGCUCCGUUGAAGGGAGUUUAUCAUG, at most -4.2. For GGAUCUUCUCGAUCUAACAAAAUAGACGUAUCUGCCACAAAGCUUGAGAGCAUCUUCGGAUGCAGAGGAGGCAGCCUUCGGUGGCGCGAUAGCGCCAACGUUCUCAACUAUGACACGCAAAACGAGUGCUCCGUUGAAUGGAGUUGAUCAUG, the “polymerase ribozyme fitness (log ratio)” value is at most -4.2. Then GGAUCUUCUCGAUCUAACAAAAUAGACAUAUCUGCCACAAAGCUUGAGAGCAUCUUCGGAUGCAGAGGCGGCAGCCUUCGGUGGAGCGAUAGCGCCAACGUUCUCAACUAUGACGCGCAAAACGCGUGCUCCGUUGAAUGGACUUUAUCAUG, with at most -4.2; and GGAUCUUCUCGAUCUAACAAAAUAGACAAAUCUGCCACUAAGCUUGAGAUUAUGUUUGGAUGCGGAGGCGGCAGCCUUCGGUGGCGCGAUAGCGCCAACGUUCUCAACUAUGACACGCAAAACGCGUGCUCCGUUGAAUGGAGUUUAUCAUG, with at most -4.2; and GGAUCUUCUCGAUCUAACAAAAUAGACAAAUCUGCCACAGAGCUUGAGAGCAUCUUAGGAUGCAGAGGCGGCAGCCUUCGGUGGCGCGAUAGCGCCAACGUUCUCAACUAUGACACGCAGAACGCGUGCUCCGUCGAAUGGAGUUUAUCAUG, with at most -4.2. Then GGAUCUUCUCGAUCUAACAAAAUAGACAAAUCUGCCACAACGUUUGAGAGCAUCUUCGGAUGCAGAAGCGGCAGCAUUCGGUGGCGCGAUAGCGCGAACGUUCUCAACUAUGACACGCAAAACGCGUGCUCCGUUGAAUGGAGUUAAUCAUG, with at most -4.2; and GGAUCUUCUCGAUCUAACAAAAUAGACAUAUCUGUCACAAACCUUGAAAGCAUCUUCGGAUGCAGAGGCGUCAGCCUUCGGUGGCGCGAUAGUGCCAACGUUCUCAACUAUGACACGCAAAACGCGUGCUCCGUUGAAUGUACUUUAUCAUG, with at most -4.2.

In the case of GGAUCUUCUCGAUCUAACAAAAUAGACAAAUCUGCCACAAAGCUUGAGCUCAUCUUCGGAUGCAGAGGCGGCAGCCUUCGGUGGCGCGAUAGCGUCAACGUUCUCAACUAUGACACGCAAAACGCGUGCUCCGUUGAAUGGAGUUUAUCAUG, the “polymerase ribozyme fitness (log ratio)” value was at most -4.2. Then GGAUCUUCUCGAUCUAACAAAAUAGACAAAUCUGCCACAAAGCUUGUGAGCAUCUUAGGAUGCAGAGGCGGCAGCCUUCGGUAGCGCGAUAGCGCAAACGUUCUCAACUAUGACACGCAAAACGCGUGCUCCGUUGAAUGGAGUUUAUCAUG, with at most -4.2. For GGAUCUUCUCGAUCUAACAAAAUAGACAAAUCUGCCCCAACGCUUGAGAGCAUCUUCGGAUGCAGAGGCGGCAGCCUUCGGUGGCGCGAUAGCGCCAACGUUCUUAACUAUGACACGCAAAACGCGUGCUCCGUUGAAUGGAGUUUAUCAUG, the “polymerase ribozyme fitness (log ratio)” value is at most -4.2. To GGAUCUUCUCGAUCUAACAAAAUAGACUAAUCUGCCACAAAGCAUGAGAGCAUCUUCGGAUGCAGAGGCGGCAGCCUUCGGUGGGGCGAUAGCGCCAACGUUCUCAACUAUGACACACAAAACGCGUGCUCCGUUGAAUGGAGUUUAUCAUG belongs at most -4.2; to GGAUCUUCUCGAUCUAACAAAAUAGACAAAUCUGCCACAAAGCUUGAGAGCAUCUUCGGAUGCAGAGGCGGCGGCCCUCGGUCGCGCGAUAGCGCCAACGUUCUCAACUAUCACACGCAAAACGCGUGCUCCGUUGAAUGGAGUUUAUCAUG, at most -4.2.

Source of the values: the RNAGym collection of RNA variant scans (doi:10.1073/pnas.2313332121).
